Among all 48,000 compounds or so, about 1,200 (2.5%) were called active. Another 2% or so got no clear call; they are omitted.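 The calls were made as follows: active = activation of at least 60% and not above a set upper limit (about 1 call in 100 departs from these limits); inconclusive = activation of 40% to 60%, or above that upper limit; inactive = activation under 40%.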 The list shows a part of the results.

UniProt O75388, sequence (O75388 whole entry, looked up): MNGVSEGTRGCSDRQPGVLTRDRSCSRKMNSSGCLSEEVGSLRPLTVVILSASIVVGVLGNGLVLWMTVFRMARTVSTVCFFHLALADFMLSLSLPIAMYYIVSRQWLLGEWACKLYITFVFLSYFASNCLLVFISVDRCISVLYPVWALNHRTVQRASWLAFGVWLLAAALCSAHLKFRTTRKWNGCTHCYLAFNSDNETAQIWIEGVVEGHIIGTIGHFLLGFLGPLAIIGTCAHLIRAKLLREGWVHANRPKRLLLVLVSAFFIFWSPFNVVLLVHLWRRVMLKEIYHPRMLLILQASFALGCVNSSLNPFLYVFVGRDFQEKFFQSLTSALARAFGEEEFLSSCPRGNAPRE

The assay concerns the target Probable G-protein coupled receptor 32 (Homo sapiens) (UniProt O75388). As to the kind of experiment: qHTS for Agonists of Human Resolvin D1 Receptor DRV1. Also: 0% is about no effect. The note with it: CHO-K1 GPR32 beta-arrestin PathHunter luminescence, 90 min; at 76.9 µM; stronger effect = higher value; zero percent set by DMSO-only wells. In outline:
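Cells are plated overnight, treated with compounds in DMSO for 90 minutes at 37 °C, and developed with PathHunter detection reagent for 1 hour before luminescence is read; signal reflects beta-arrestin binding to GPR32 in engineered CHO-K1 cells.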
A general note: qHTS replaces the single test concentration by a dilution series.
Turning to `Cc1ccc(N(CC(=O)NCc2ccc(Cl)cc2)S(=O)(=O)N(C)C)cc1`, the activation is inactive: 13.2%. On to `COc1ccc(-c2cc(OC(=O)c3ccc(Cl)cc3)c3c(C)oc(C)c3c(=O)c2)cc1`, for which the activation was inactive: -2.43%. On to `Cc1cccc(CN2C(=O)c3ccccc3S(=O)(=O)c3ccc(C(=O)NCCC4=CCCCC4)cc32)c1`, for which the activation is inactive: -21.4%. As for `COC(=O)c1ccc(Nc2nnc(-c3ccc(C)c(S(=O)(=O)N4CCN(C)CC4)c3)c3ccccc23)cc1`, the figure is inactive: -33.4%; as for `Cc1ccc(C(=O)Nc2cccc(-c3nc4cccnc4s3)c2C)cc1`, inactive: 5.24%; as for `COc1cc(Cl)c(C)cc1NC(=O)c1sc2nc3n(c(=O)c2c1C)CCCCC3`, inactive: 7.24%. As for `COc1ccc(OC)c(NC(=O)CSC2=Nc3ccccc3C3=NC(CC(=O)NCc4ccc5c(c4)OCO5)C(=O)N23)c1` (configuration not stated), the figure is inactive: 4.38%. Regarding `Cc1ccccc1Cn1c(=O)n(Cc2ccc(Cl)cc2)c(=O)c2cccnc21`, the activation was inactive: -7.36%.

Consider `O=c1cc(N2CCN(c3ccc(F)cc3)CC2)[nH]c(=O)n1-c1ccc(Br)cc1`, for which the activation was inactive: -4.6%. Consider `Cn1c(SCc2ccc(C(F)(F)F)cc2)nc2c([nH]c3ccccc32)c1=O`, for which the activation was inactive: 1.32%. For `CCOC(=O)c1c(NC(=O)c2nc(SC(C)C)ncc2Cl)sc2c1CCCC2`, the activation is inactive: -1.05%. As for `COc1cc(C(=O)NCC(c2cccnc2)N2CCc3ccccc32)cc(OC)c1OC` (configuration not stated), the figure is inactive: -28.2%. With `CN(C)c1ccc(C(CNS(=O)(=O)c2ccccc2)N2CCc3ccccc32)cc1` (configuration not stated), the activation was inactive: -28.3%. Regarding `COc1cc(NC(=O)N2CCC(CN3CCCC3)CC2)cc(OC)c1OC`, the activation is inactive: -14.7%. Turning to `CC(=O)c1c(C)oc2c(Cl)cc(NS(=O)(=O)c3ccc(Cl)cc3)cc12`, the activation is inactive: 16.4%. With `CCN(CC)C(=O)Cn1c(=O)n(Cc2ccc(C(=O)NCc3ccccc3Cl)cc2)c(=O)c2ccccc21`, the activation was inactive: -2.76%. `CCOC(=O)c1c(-c2ccc(Br)cc2)csc1NC(=O)c1ccccc1F`: the activation is inactive: -6.42%.

Turning to `COc1cc(C2C(=O)N(C3CCCCC3)CC(=O)N2Cc2ccc(C)cc2)ccc1OC(C)C` (configuration not stated), the activation is inactive: -23.9%. Take `O=C(CSc1nccn1-c1ccc(F)cc1)Nc1ccc(OC(F)(F)F)cc1`: the activation is inactive: 3.27%. Regarding `N#C/C(=C\c1ccc(-c2cc(Cl)ccc2Cl)o1)C(=O)Nc1cccc2ncccc12`, the activation was inactive: 6.4%. For `O=C1[C@@H]2CSC(c3ccc(C(F)(F)F)cc3)N2C(=O)N1c1ccccc1` (some centres not stated), the activation is inactive: -8.16%. Take `CCCNc1c(NC(=O)c2ccc(OCCC)cc2)c(=O)oc2ccccc12`: the activation is inactive: -2.64%. For the compound `O=C1CN(C(=O)c2ccccc2C(F)(F)F)C(c2ccccc2)c2cc(F)ccc2N1` (configuration not stated), the activation was inactive: -17.1%. As to `COc1cc2c(cc1OC)C(COc1ccc3c(C)cc(=O)oc3c1)N(C(=O)c1ccc(Cl)cc1)CC2` (configuration not stated), the activation is inactive: -8.27%. The value for `Cc1ccc2c(C)c(C(=O)N(Cc3ccc(Cl)cc3)C3CCS(=O)(=O)C3)oc2c1` (configuration not stated) was inactive: -38.5%. On to `COc1cc(OC)cc(C(=O)Nc2ccccc2-c2nc3ccccc3s2)c1`, for which the activation is inactive: 0.335%. As to `CN(C)c1ccc(C(CNC(=O)c2ccc(C(C)(C)C)cc2)N2CCOCC2)cc1` (configuration not stated), the activation is inactive: -27%. With `COc1ccc2[nH]c(C)c(CCNS(=O)(=O)c3cc(F)ccc3OC)c2c1`, the activation is inactive: 9.75%. Take `CCCOc1cccc(C(=O)Nc2cccc(NC(=O)c3ccc(C(C)(C)C)cc3)c2)c1`: the activation is inactive: -5.75%. Take `COc1ccc(CCNC(=O)C2(c3cccs3)CCOCC2)cc1OC`: the activation is inactive: 0.221%. As for `Cc1coc2cc3oc(=O)c(CCC(=O)NCc4ccc(Cl)cc4)c(C)c3cc12`, the figure is inactive: 20.1%; as for `CCOc1ccc(OC(=O)c2cn(-c3ccc(C)cc3)c(=O)c3ccccc23)cc1`, inactive: -10.9%; as for `COc1ccc(-c2nc3c4ccccc4n(CC(=O)Nc4cc(F)ccc4F)c(=O)n3n2)cc1`, inactive: 13.7%. In the case of `CCCCC(=O)Nc1ccccc1C(=O)OCc1cc(=O)n2nc(C3CCCCC3)sc2n1`, the activation is inactive: -8.68%. The value for `COc1ccc(-c2cc(C(F)(F)F)n3nc(C(=O)Nc4cc(Cl)cc(Cl)c4)cc3n2)cc1` was inactive: -11.7%.

Take `COc1cc(-c2ccno2)ccc1S(=O)(=O)N1CCN(c2ccc(C(C)=O)cc2)CC1`: the activation was inactive: 3.66%.

Regarding `COc1ccc(N2CCN(S(=O)(=O)CCNC(=O)Cc3ccc(Cl)cc3)CC2)cc1`, the activation was inactive: -3.04%. For the compound `CCOC(=O)C1CCN(C(=O)Cn2nc(C)n3c(cc4cc(F)ccc43)c2=O)CC1`, the activation is inactive: 36.5%. Regarding `CCn1cc(S(=O)(=O)c2cc(C)cc(C)c2)c(=O)c2cc(F)c(N3CCCC3)cc21`, the activation is inactive: -10.3%.

For the compound `CCOc1ccc(CCNC(=O)c2nnc(Cc3cc(OC)c(OC)c(OC)c3)o2)cc1OCC`, the activation is inactive: 5.86%.

Take `CCCCN1C(=O)CN(C2CCCCCC2)C(=O)C1c1ccc(OCCC)c(OC)c1` (configuration not stated): the activation was inactive: -14.6%. As for `COC(=O)c1c(-c2ccc(Cl)cc2)noc1N1CCN(c2ccc(C)cc2C)CC1`, the figure is inactive: -4.58%; as for `CC(C)c1ccc(NC(=O)C2CCCN(S(=O)(=O)c3cccc4cccnc34)C2)cc1` (configuration not stated), inactive: -15.5%. As for `CCCCN(C)CCCNC(=O)C1CCN(c2nc3ccc(CC)cc3s2)CC1`, the activation was inactive: 4.94%. Take `COc1ccc(OC)c(NC(=O)c2noc3c2CCCC3)c1`: the activation was inactive: -23.8%. As to `CCOC(=O)Cc1ccc(NC(=O)N2CCOc3ccc(C)cc32)cc1`, the activation was inactive: -24.5%. Take `CCOC(=O)c1cc(S(=O)(=O)N2CCN(c3ccccc3)CC2)[nH]n1`: the activation was inactive: -25.8%.

With `CCOC(=O)Cn1c(=O)oc2cc(S(=O)(=O)N3CCN(c4cccc(C)c4C)CC3)ccc21`, the activation is inactive: 5.1%. Regarding `Cc1ccc2nc(N(Cc3cccnc3)C(=O)COc3ccccc3)sc2c1`, the activation is inactive: -11.2%. As for `O=C(Nc1c(Cl)cccc1Cl)c1cc(-c2ccc3c(c2)OCO3)on1`, the figure is inactive: 2.98%; as for `Cc1ccc(OC(C)C(=O)Nc2nonc2-c2ccc(Br)cc2)cc1C` (configuration not stated), inactive: -4.28%; as for `CCc1nnc2c3ccccc3nc(Nc3ccc(C(C)=O)cc3)n12`, inactive: 2.48%.

Source of the values: PubChem BioAssay AID1346428 (National Center for Advancing Translational Sciences (NCATS), 2018).
